# From ChEMBL document CHEMBL1961873, “Compounds: GSK PKIS; Assays: Nanosyn kinase panel” (2012)
# For some of these results: The strong results were mostly taken out for another list; the other results follow. This is a selection; strong and weak results do not stand in their true shares.
# Experiments:
# [1] = target: Tyrosine-protein kinase Fyn (Homo sapiens) (UniProt P06241); settings: at 1 µM
# [2] = target: Tyrosine-protein kinase HCK (Homo sapiens) (UniProt P08631); settings: at 0.1 µM
# [3] = target: Tyrosine-protein kinase HCK (Homo sapiens) (UniProt P08631); settings: at 1 µM
# [4] = target: Insulin-like growth factor 1 receptor (Homo sapiens) (UniProt P08069); settings: at 0.1 µM
# [5] = target: Insulin-like growth factor 1 receptor (Homo sapiens) (UniProt P08069); settings: at 1 µM
# [6] = target: Insulin receptor (Homo sapiens) (UniProt P06213); settings: at 0.1 µM
# [7] = target: Insulin receptor (Homo sapiens) (UniProt P06213); settings: at 1 µM
# [8] = target: Insulin receptor-related protein (Homo sapiens) (UniProt P14616); settings: at 0.1 µM
# [9] = target: Insulin receptor-related protein (Homo sapiens) (UniProt P14616); settings: at 1 µM
# [10] = target: T1, Tyrosine-protein kinase ITK/TSK (Homo sapiens) (UniProt Q08881); settings: at 0.1 µM
# T1 sequence (whole entry): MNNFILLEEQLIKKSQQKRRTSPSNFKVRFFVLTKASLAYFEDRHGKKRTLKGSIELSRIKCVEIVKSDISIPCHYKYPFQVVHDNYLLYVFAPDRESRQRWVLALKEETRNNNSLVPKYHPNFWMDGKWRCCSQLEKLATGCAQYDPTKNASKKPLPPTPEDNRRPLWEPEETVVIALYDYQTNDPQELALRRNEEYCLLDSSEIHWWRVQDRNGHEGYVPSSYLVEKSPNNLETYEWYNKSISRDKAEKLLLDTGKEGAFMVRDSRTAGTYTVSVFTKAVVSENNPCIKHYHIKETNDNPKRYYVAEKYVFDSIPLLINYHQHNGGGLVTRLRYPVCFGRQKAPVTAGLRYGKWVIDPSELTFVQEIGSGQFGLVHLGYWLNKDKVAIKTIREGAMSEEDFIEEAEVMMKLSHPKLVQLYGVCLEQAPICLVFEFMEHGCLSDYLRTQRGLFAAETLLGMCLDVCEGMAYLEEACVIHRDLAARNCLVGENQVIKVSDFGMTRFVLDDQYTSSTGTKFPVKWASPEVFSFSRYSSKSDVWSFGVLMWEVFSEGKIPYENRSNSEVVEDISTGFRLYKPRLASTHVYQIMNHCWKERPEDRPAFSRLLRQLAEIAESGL
# [11] = target: T1, Tyrosine-protein kinase ITK/TSK (Homo sapiens); settings: at 1 µM
# [12] = target: Tyrosine-protein kinase JAK1 (Homo sapiens) (UniProt P23458); settings: at 0.1 µM
# [13] = target: Tyrosine-protein kinase JAK1 (Homo sapiens) (UniProt P23458); settings: at 1 µM
# [14] = target: Tyrosine-protein kinase JAK2 (Homo sapiens) (UniProt O60674); settings: at 0.1 µM
# [15] = target: Tyrosine-protein kinase JAK2 (Homo sapiens) (UniProt O60674); settings: at 1 µM
# [16] = target: T2, Tyrosine-protein kinase JAK3 (Homo sapiens) (UniProt P52333); settings: at 0.1 µM
# T2 sequence (whole entry): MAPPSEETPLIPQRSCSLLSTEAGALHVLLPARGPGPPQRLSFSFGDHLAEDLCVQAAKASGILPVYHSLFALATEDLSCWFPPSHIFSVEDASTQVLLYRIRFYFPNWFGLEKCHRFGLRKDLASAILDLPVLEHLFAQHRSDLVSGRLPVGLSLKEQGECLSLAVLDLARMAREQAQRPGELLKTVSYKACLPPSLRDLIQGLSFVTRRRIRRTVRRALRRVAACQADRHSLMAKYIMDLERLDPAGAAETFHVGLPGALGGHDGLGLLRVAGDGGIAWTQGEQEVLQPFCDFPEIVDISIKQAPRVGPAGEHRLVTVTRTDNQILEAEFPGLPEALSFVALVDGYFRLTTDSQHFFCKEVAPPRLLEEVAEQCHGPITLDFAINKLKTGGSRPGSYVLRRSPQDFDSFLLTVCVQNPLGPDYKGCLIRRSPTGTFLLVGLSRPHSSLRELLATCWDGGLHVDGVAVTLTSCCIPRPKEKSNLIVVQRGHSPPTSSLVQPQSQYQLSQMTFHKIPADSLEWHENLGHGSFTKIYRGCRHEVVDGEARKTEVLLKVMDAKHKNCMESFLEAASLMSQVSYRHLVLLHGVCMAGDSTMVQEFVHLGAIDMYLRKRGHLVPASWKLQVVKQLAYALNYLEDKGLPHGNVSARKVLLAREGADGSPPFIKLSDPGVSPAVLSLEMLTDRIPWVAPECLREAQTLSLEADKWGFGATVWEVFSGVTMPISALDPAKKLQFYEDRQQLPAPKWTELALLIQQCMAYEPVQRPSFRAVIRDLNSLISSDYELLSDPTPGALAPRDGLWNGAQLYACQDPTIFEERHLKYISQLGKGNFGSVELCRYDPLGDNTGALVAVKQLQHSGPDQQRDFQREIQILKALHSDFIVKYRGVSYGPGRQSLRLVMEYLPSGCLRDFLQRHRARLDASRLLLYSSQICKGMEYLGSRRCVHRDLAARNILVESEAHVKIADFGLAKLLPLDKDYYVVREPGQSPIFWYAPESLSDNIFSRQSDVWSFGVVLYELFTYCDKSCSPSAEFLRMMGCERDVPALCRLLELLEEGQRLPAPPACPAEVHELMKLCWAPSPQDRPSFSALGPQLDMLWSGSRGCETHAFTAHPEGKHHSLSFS
# [17] = target: T2, Tyrosine-protein kinase JAK3 (Homo sapiens); settings: at 1 µM
# [18] = target: Vascular endothelial growth factor receptor 2 (Homo sapiens) (UniProt P35968); settings: at 0.1 µM
# [19] = target: Vascular endothelial growth factor receptor 2 (Homo sapiens) (UniProt P35968); settings: at 1 µM
# [20] = target: Mast/stem cell growth factor receptor Kit (Homo sapiens) (UniProt P10721); settings: at 0.1 µM;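 further: values are mean inhibition of KIT, from the GSK PKIS dataset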
# Chain of UniProt P10721 (P10721 whole entry): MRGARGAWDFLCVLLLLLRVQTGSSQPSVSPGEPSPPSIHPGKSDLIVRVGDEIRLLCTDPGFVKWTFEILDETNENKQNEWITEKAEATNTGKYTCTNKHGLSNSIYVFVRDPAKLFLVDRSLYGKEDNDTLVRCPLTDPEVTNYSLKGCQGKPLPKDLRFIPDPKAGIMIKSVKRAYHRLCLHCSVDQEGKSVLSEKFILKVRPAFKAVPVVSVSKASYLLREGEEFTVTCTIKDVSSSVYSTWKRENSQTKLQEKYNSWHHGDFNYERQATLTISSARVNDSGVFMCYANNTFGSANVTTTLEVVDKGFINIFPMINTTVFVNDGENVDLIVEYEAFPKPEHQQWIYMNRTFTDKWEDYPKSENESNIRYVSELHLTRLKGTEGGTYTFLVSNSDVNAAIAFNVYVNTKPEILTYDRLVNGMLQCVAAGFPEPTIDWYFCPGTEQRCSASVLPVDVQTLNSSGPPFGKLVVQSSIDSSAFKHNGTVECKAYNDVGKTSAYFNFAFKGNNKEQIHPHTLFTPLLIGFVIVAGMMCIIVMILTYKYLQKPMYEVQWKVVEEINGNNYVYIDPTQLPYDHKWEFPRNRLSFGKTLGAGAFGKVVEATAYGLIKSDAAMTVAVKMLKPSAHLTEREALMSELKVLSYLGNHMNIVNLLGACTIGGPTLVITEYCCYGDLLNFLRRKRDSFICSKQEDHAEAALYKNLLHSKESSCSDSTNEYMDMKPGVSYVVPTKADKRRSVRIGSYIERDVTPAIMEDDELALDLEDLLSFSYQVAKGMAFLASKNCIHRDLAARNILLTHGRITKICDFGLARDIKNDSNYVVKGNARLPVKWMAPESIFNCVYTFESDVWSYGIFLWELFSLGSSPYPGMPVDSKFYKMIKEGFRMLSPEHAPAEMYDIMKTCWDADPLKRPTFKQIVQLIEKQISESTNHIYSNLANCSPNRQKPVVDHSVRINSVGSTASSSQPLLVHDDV
# Chain of UniProt P14616 (P14616 whole entry): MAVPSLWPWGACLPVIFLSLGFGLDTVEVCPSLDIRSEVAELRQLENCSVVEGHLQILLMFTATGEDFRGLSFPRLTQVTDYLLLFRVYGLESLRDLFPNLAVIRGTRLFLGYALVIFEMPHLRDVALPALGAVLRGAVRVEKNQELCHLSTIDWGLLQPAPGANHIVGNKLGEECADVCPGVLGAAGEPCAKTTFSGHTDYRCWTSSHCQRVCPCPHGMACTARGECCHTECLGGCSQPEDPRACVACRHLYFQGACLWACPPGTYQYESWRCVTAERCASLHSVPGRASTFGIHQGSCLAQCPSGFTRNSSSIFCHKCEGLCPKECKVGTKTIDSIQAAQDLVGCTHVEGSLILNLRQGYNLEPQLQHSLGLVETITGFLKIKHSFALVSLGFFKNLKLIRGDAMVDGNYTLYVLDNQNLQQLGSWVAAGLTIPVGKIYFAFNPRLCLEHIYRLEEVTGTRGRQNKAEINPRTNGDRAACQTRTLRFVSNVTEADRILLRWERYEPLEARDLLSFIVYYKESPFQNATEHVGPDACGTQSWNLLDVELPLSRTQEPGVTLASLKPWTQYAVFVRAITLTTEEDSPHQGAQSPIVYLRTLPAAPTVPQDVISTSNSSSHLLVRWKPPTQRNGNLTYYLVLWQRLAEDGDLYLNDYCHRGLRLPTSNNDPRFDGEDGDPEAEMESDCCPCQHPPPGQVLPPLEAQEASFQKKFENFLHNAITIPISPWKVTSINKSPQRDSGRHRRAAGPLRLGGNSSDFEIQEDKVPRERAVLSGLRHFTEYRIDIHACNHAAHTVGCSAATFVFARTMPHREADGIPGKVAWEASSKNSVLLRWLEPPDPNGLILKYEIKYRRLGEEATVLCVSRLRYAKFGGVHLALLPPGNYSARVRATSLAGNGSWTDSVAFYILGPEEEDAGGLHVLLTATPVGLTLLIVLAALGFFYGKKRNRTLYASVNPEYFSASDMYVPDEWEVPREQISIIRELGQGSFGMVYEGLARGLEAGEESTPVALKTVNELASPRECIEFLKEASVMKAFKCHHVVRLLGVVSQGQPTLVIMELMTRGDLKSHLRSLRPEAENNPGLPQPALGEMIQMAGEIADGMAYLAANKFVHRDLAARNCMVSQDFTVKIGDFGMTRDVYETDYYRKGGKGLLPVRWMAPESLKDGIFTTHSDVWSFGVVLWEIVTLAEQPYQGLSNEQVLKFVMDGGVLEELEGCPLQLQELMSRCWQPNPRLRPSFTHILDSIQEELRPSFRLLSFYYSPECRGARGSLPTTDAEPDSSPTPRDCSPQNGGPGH
# Chain of UniProt P23458 (P23458 whole entry): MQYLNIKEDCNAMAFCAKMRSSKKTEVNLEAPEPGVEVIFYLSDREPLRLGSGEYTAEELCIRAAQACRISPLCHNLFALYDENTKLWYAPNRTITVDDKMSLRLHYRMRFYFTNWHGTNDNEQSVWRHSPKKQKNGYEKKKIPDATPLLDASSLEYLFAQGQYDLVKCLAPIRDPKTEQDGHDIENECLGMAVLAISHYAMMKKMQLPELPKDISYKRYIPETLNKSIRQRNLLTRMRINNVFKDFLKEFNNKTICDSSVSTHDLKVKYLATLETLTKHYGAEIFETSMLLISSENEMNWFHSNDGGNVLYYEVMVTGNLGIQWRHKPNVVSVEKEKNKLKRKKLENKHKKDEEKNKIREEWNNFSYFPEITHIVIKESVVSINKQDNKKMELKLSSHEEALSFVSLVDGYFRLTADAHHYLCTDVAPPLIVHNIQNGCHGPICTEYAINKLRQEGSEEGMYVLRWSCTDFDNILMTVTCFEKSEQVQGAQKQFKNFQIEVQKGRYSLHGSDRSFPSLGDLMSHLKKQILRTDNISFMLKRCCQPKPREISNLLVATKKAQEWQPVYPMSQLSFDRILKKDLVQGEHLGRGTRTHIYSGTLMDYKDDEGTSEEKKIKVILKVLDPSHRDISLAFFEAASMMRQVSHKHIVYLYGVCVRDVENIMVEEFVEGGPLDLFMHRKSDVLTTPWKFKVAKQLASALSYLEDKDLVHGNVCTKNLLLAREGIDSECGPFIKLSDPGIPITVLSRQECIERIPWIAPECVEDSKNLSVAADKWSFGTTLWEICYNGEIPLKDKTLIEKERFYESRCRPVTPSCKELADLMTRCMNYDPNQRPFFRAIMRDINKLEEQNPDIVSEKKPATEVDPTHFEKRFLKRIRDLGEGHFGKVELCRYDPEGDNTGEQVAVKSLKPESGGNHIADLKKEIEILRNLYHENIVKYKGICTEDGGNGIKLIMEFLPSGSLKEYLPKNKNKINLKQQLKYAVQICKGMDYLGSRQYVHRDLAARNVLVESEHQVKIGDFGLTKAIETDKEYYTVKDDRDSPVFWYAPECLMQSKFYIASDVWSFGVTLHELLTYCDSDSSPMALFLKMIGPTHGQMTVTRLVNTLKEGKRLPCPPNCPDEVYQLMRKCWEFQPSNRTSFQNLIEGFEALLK
# Chain of UniProt P08069 (P08069 whole entry, looked up): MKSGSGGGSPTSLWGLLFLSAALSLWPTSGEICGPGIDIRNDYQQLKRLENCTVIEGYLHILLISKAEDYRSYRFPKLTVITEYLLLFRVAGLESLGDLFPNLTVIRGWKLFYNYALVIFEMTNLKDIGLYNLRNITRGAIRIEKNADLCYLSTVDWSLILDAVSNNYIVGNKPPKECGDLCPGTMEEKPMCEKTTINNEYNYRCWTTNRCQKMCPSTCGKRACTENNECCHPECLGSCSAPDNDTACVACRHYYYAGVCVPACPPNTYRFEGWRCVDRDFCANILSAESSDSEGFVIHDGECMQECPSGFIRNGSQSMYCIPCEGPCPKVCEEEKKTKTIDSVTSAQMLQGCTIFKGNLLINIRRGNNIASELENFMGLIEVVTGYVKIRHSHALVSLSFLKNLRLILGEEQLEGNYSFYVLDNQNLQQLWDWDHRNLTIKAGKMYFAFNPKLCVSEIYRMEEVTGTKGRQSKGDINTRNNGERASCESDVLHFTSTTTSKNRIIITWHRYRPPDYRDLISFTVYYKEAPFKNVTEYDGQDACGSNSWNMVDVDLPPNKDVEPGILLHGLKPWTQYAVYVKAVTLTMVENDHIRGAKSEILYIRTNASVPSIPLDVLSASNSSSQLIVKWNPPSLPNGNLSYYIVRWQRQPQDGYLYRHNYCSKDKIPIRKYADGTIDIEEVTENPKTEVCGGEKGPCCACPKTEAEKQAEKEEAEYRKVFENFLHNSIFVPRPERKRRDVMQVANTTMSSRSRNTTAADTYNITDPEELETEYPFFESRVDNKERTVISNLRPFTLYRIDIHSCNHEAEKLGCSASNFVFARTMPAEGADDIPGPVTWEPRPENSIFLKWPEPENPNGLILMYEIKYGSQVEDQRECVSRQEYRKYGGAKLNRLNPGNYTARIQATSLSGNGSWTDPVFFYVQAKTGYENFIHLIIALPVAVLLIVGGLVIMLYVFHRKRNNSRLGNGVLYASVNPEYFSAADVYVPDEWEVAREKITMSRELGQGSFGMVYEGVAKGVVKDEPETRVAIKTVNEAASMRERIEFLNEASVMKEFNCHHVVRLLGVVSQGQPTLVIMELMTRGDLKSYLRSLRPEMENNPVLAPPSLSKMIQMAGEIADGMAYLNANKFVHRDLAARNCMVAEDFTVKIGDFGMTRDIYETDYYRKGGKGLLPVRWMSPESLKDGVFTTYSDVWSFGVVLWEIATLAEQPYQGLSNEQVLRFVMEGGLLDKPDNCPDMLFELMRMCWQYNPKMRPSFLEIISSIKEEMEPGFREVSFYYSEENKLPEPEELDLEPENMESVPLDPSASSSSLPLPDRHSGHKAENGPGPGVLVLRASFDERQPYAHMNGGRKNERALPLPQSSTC
SMILES,inhibition [1] [%],inhibition [2] [%],inhibition [3] [%],inhibition [4] [%],inhibition [5] [%],inhibition [6] [%],inhibition [7] [%],inhibition [8] [%],inhibition [9] [%],inhibition [10] [%],inhibition [11] [%],inhibition [12] [%],inhibition [13] [%],inhibition [14] [%],inhibition [15] [%],inhibition [16] [%],inhibition [17] [%],inhibition [18] [%],inhibition [19] [%],inhibition [20] [%]
O=C1NC(=O)C(c2ccccc2Cl)=C1Nc1cc(Cl)c(O)c(Cl)c1,0.23,1.89,8.37,1.91,1.79,0.79,-0.85,2.16,2.59,0.77,2.36,3.67,10.6,0.42,2.34,-1.06,10.1,4.32,7.66,26.8
Fc1ccc(-c2ncn(C3CCNCC3)c2-c2ccnc(Oc3cccc(C(F)(F)F)c3)n2)cc1,6.48,7.73,8.66,3.26,6.06,4.7,3.65,3.45,3.68,0.41,2.14,7.56,7.58,1.58,0.05,-4.57,2.36,5.75,7.38,6.51
Fc1ccc(-c2ncn(C3CCNCC3)c2-c2ccnc(Oc3ccc(Cl)cc3)n2)cc1,3.05,1.04,-0.6,-0.68,5.66,–,2.85,-1.44,-1.6,0.41,1.14,1.44,0.39,-1.11,-1.29,0.38,-0.37,0.83,2,1.07
O=C1NC(=O)C(c2ccccc2)=C1Nc1ccccc1,4.25,10.2,15.1,5.39,4.3,6.5,8.98,2.18,3.78,2.2,1.4,4.68,9.57,2.18,4.49,-0.46,11.6,13.8,27.9,7.27
CC(C)(C)c1ccc(Oc2nccc(-c3c(-c4ccc(F)cc4)ncn3C3CCNCC3)n2)cc1,5.3,7.2,8.3,-1.9,1.32,1.4,5.16,2.47,1.93,-0.32,0.57,3.07,4.69,2,1.52,-3.07,-0.98,4.43,6.6,5.57
COc1ccccc1C1=C(Nc2ccccc2)C(=O)NC1=O,13.1,5.27,16.2,3.72,4.06,3.01,1.91,3.89,3.19,1.05,1.95,4.32,19.1,1.08,2.77,6.12,53.9,6.75,21.1,4.07
Fc1ccc(-c2ncn(C3CCNCC3)c2-c2ccnc(Oc3cccc(F)c3)n2)cc1,9.46,10.4,17.6,3.86,3.63,8.06,5.93,2.5,2.72,2.54,2.15,0.83,2.69,2.8,2.65,-1.47,-1.15,9.47,16,6.84
